From PubChem BioAssay AID1508624 (National Center for Advancing Translational Sciences (NCATS), 2021)
Hit rate of the full screen: of about 48,000 compounds, about 120 (0.25%) were called active. About 4% were inconclusive and are not listed. Calls come from the whole dose curve; as a rule, active = well fitted activation curve with a large enough effect; inconclusive = small, poorly fitted or top-dose-only effect, or another doubt; inactive = no such curve, though single readings can be large or run the other way. The list shows a part of the results.

Experiment: Primary qHTS for Identification of Small Molecule Activators of Huntingtin-Antisense Promoter Activity; note: nearly all actives have a fitted effect of over 55% in size
Conditions: HEK293 HTT-AS promoter firefly luciferase reporter (activity 0% = vehicle and -100% = no light), 24 h; series mostly up to 57.5 µM; activity change, positive = activation: at the top concentration
Method in brief: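 Firefly luciferase signal from promoter-reporter HEK293 cells was scaled between vehicle (0%) and zero RLU (-100%). Compounds were tested at final concentrations of up to 57.5 uM over 24 h at 37 degrees C. PTC124 at 50 uM final served as control inhibitor.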

Activity change, positive = activation, inactive:
Cc1ccc(NC(=O)C2CCCN2S(=O)(=O)c2ccc3c(c2)CCCC(=O)N3)cc1C (stereo unspecified) -34.1%
O=C(Cn1c(=O)c2cc(Cl)ccc2n2nncc12)Nc1ccccc1 -11.2%
Cc1ccc(NC(=O)Cn2cc(S(=O)(=O)c3ccc(F)cc3)c(=O)c3cc4c(cc32)OCO4)cc1 -19.6%
CCOc1ccccc1C1CC(=O)NC(C)=C1C(=O)OC1CCCCCC1 (stereo unspecified) -44.7%
Cc1cccc(Oc2nc3ccccn3c(=O)c2/C=C(\C#N)c2nc3ccccc3s2)c1C 2.49%
COc1ccc(-n2c3c(c(=O)[nH]c2=O)C(NC(C)=O)(C(F)(F)F)C(=O)N3)cc1 (stereo unspecified) 13.4%
COCCNC(=O)Cn1c(=O)n(Cc2ccc(C(=O)NCCc3ccc(OC)c(OC)c3)cc2)c(=O)c2ccccc21 -22.3%
COc1cc(Cl)c(C)cc1NC(=O)CCCN1C(=O)C(c2ccccc2)Oc2cccnc21 (stereo unspecified) -36.8%
COc1ccc(NC(=O)C2CCCN(S(=O)(=O)c3cn(C)cn3)C2)cc1Cl (stereo unspecified) -14.6%
COc1ccc(CCNC(=O)c2ccc3c(c2)CCN3S(=O)(=O)c2ccc(Cl)cc2)cc1 -33%
COc1ccc(C(=O)N(Cc2sccc2C)C2CCS(=O)(=O)C2)cc1Cl (stereo unspecified) -10.7%
Cc1cc(C)c(S(=O)(=O)Nc2cc(-c3cn4ccccc4n3)ccc2C)cc1C -17.4%
CCN1CCN(C(=O)c2ccc3c(c2)N(Cc2ccc(Cl)cc2)C(=O)c2ccccc2S3(=O)=O)CC1 -10.6%
Cc1ccc(C(=O)c2sc(Nc3ccccc3F)c(S(=O)(=O)c3ccccc3)c2N)c(C)c1 -31.2%
O=C(NCc1ccc2c(c1)OCO2)c1ccc2c(c1)N(Cc1cccc(Cl)c1)C(=O)c1ccccc1S2 -14.4%
Cc1cccc(N2CCN(C(=O)C3CCN(S(=O)(=O)c4c(C)noc4/C=C/c4ccccc4F)CC3)CC2)c1C 4.91%
O=C(Cn1ncc2c([nH]c3ccccc32)c1=O)Nc1cc(F)ccc1F -17.5%
O=C(Nc1nnc(S(=O)(=O)N2CCCCCC2)s1)c1ccc(Br)cc1 -14.5%
COc1c(Cl)cc(C(=O)Nc2cccc(-c3nc4ccccc4[nH]3)c2)cc1Cl -36.1%
Cc1cc(C)c(Cn2c3ccccc3c3cnn(CC(=O)NCCc4ccccc4)c(=O)c32)c(C)c1 -15.7%
COc1ccc(Cl)cc1NC(=O)Cn1nnc2sc3c(c2c1=O)CCC(C(C)(C)C)C3 (stereo unspecified) -6.62%
CCc1cccc(C)c1NS(=O)(=O)c1c(C(=O)N2CCCCCC2)c(C)n(C)c1C -12.2%
Cc1ccc(Cl)cc1N1CCN(C(=O)CN2C(=O)COc3ccc(S(=O)(=O)N4CCOCC4)cc32)CC1 -18.4%
O=C(NCc1ccc(F)cc1)c1ccc(CSc2nc3ccncc3n2Cc2ccc(F)cc2)cc1 -20.5%
CCOC(=O)c1c(Nc2cccc(O)c2)nnc(-c2ccccc2)c1-c1ccccc1 -21.5%
COc1cc(OC)c(NC(=O)c2c(C)nn(-c3ccc(C)cc3)c2-n2cccc2)cc1Cl -8.42%
COc1ccc(C(=O)NCCn2cc(SCC(=O)Nc3ccccc3)c3ccccc32)cc1OC -36%
COc1ccc(OC)c(NC(=O)c2ccc(-c3nc(CSc4ccccc4)c(C)o3)cc2)c1 -4.94%
CC(C)(C)C(=O)Cn1c(=O)n(CCCCCC(=O)NCc2ccc3c(c2)OCO3)c(=O)c2sccc21 -27.4%
CCCCn1cc(S(=O)(=O)c2ccc(CC)cc2)c(=O)c2cc(F)c(N3CCCC(C)C3)cc21 (stereo unspecified) -11.1%
COc1ccccc1CCNC(=O)c1ccc(NC(=O)N2CC(C)Sc3ccccc32)cc1 (stereo unspecified) -27.3%
Cc1ccc(C(=O)CSc2nc3cc(C(=O)NC4CCCC4)ccc3c(=O)n2CC2CCCO2)cc1 (stereo unspecified) 3.48%
CSc1cccc(NS(=O)(=O)c2ccc3[nH]cc(C(=O)N4CCCC4)c(=O)c3c2)c1 -3.64%
Cc1cc(C)c(Cn2c3ccccc3c3cnn(CC(=O)NC4CCCCCC4)c(=O)c32)c(C)c1 -14.3%
COc1ccc(Cn2cc(C(=O)c3ccc(Cl)cc3)c(=O)c3cc4c(cc32)OCO4)cc1 -16.2%
CC(C)(Sc1cc(C(C)(C)C)c(O)c(C(C)(C)C)c1)Sc1cc(C(C)(C)C)c(O)c(C(C)(C)C)c1
CCc1ccc(Nc2nn3c(=O)c4cc5c(cc4nc3s2)OCO5)cc1 -12.2%
Cc1ccc(-n2nc3c(N4CCC(C(=O)N5CCC(C)CC5)CC4)nnc(C)c3c2C)cc1 -16.3%
O=C(Nc1cccc(Cl)c1Cl)c1cc(S(=O)(=O)N2CCC3(CC2)OCCO3)ccc1F -15.9%
COc1cc(OC)cc(C(=O)Nc2ccc(S(=O)(=O)N3CCCCC3c3cccnc3)cc2)c1 (stereo unspecified) -46.4%
Cc1cc(C)cc(NC(=O)C2CCCN2S(=O)(=O)c2ccc3c(c2)C(C)(C)C(=O)N3C)c1 (stereo unspecified) -28.3%
CCOC(=O)c1ccc(NC(=O)c2ccc3c(c2)c(C)c(C)n3Cc2ccc(F)cc2)cc1 -23.8%
CCOC(=O)C1(C)C=C(Nc2ccc(OC)cc2)C(=O)N1c1ccccc1 (stereo unspecified) 2.06%
COc1ccccc1NC(=O)c1oc2ccccc2c1NC(=O)c1c(F)cccc1F 0%
CCOc1ccccc1N1CC(c2nc3ccccc3n2CCOc2ccc(OC)cc2)CC1=O (stereo unspecified) -47.2%
CC(=O)N(Cc1cccnc1)c1nc2c(C)cc(C)cc2s1 -13.7%
COc1ccc(CNC(=O)c2cc(-c3cccs3)nc3ccccc23)c(OC)c1 -1.84%
CCOC(=O)c1sc(NC(=O)c2nc3ncccn3n2)c(C(=O)OC(C)C)c1C -2.8%
CC1CCc2c(sc3nnn(Cc4ccccc4)c(=O)c23)C1 (stereo unspecified) -11.1%
Cc1ccc(NS(=O)(=O)c2ccc3[nH]c4c(c3c2)CCCC4)c(C)c1 -28.7%
CC(C)Cn1c(=O)c2sccc2n2c(CCCC(=O)NCC(C)c3ccccc3)nnc12 (stereo unspecified) -15.3%
O=C(NCCN1CCN(c2ccccc2F)CC1)C1COc2ccccc2C1 (stereo unspecified) -15.9%
O=C(CSc1oc(-c2ccccc2)nc1S(=O)(=O)c1ccc(Br)cc1)NC1CCCCC1 -10%
COc1ccc(CNC(=O)c2ccc3c(c2)N(Cc2ccccc2F)C(=O)c2ccccc2S3=O)cc1 (stereo unspecified) -15.7%
CC(=O)Nc1nonc1-c1nnc(SCc2ccccc2C)n1C -16.8%
COc1ccc(OC)c(NC(=O)Cc2c(C(=O)O)[nH]c3ccc(Cl)cc23)c1 -10%
CCc1ccccc1NC(=O)Cc1ccc(-n2c(C)nc3cccnc32)cc1 -15.8%
COc1cccc(-c2ccc3c(N)c(C(=O)Nc4ccc(Cl)cc4F)sc3n2)c1 -20.5%
Cc1ccc(C2=Nc3ccccc3N(CC(=O)NCc3ccc(Cl)cc3)C(=O)C2)cc1C 11.3%
O=C(c1ccc(Cl)cc1)N1CCCCC1CCN1CCOCC1 (stereo unspecified) -15%
Cc1ccc(C)c(N2CCN(C(=O)c3cc4c(=O)n(Cc5cccnc5)ccc4nc3C)CC2)c1 -11.6%
Cc1cccc(CSc2nc3cccnc3n2Cc2ccc(C(=O)NCc3cccs3)cc2)c1 -26.1%
Cc1cc(C)n(-c2nc3cc(Cl)c(Cl)cc3nc2Nc2ccc(F)cc2C)n1 9.33%
Cc1cccc(C(=O)Nc2c(-c3ccc(F)cc3)nc3ccccn23)c1 -19.5%
CCn1c(=O)c2cc(C(=O)Nc3cc(C)c(Cl)cc3OC)sc2c2ccccc21 -5.02%
Cc1ccc(NC(=O)c2cc3c(Cl)nc4ccc(C)cc4c3s2)c(Cl)c1 -8.43%
COc1ccc(NC(=O)CSc2nc3ccccc3n2CC(=O)N2CCCC(C)C2)cc1 (stereo unspecified) 4.93%
O=C(CCCn1c(=O)c2cccn2c2ccc(F)cc21)NCCc1ccccc1 -11.6%
Cc1ccc(Cl)cc1NC(=O)Nc1c(C)n(C)n(-c2ccccc2)c1=O -6.15%
CCOC(=O)CSc1nc2ccc(NC(=O)c3ccc(F)cc3)cc2s1 -4.95%
COc1ccc(NC(=O)Cn2cc(S(=O)(=O)c3ccc(C)cc3)c(=O)c3ccccc32)cc1OC -0.924%
CCOc1ccccc1Nc1nc(-c2cccc(Cl)c2)c2c(n1)-c1ccccc1OC2 -3.29%
Cc1ccc(CSCC(=O)NCc2ccc(F)cc2)cc1 -6%
COc1ccc(-c2noc(-c3ccc(NCc4ccco4)c([N+](=O)[O-])c3)n2)cc1 -4.4%
CCOC(=O)c1cccc(NC(=O)CCc2c(C)nc3cc(-c4ccc(Cl)cc4)nn3c2C)c1 -79.4%
CCc1nnc(SCC(=O)N(C)c2ccccc2)c2cc3sccc3n12 -27%
COc1ccc(-c2ccc(CNc3ccc4[nH]c(=O)[nH]c4c3)o2)cc1Cl -30.9%
Cn1cnnc1SCC(=O)Nc1cc(C(=O)O)cc(C(=O)O)c1 6.95%
CCc1ccc(Oc2nc3c(C)cccn3c(=O)c2/C=C(\C#N)c2nc3ccccc3[nH]2)cc1 -7.13%
COc1cc(-c2noc(CSc3nc(-c4ccccc4)cc(=O)[nH]3)n2)cc(OC)c1OC -8.46%
Cc1cccc(C(=O)NCC(c2ccc3c(c2)OCO3)N2CCN(c3ccccc3F)CC2)c1 (stereo unspecified) -27%
Cc1ccc(-n2nc(C)c3c(C)cc(=O)n(CC(=O)Nc4ccc(Br)cc4F)c32)cc1 0.324%
COc1ccc(S(=O)(=O)c2c(Nc3ccc(C)cc3)sc(C(=O)c3ccc(C)cc3)c2N)cc1 -22.7%
Cc1cc(=O)n2[nH]c(NCc3ccc(F)cc3)nc2n1 1.68%
CCOc1ccccc1CNC(=O)C1CCN(C2=NS(=O)(=O)C(c3ccc(C)c(C)c3)=C2C)CC1 -16.7%
COc1ccc(NC(=O)c2ccc3c(=O)n4nc(Nc5cc(C)ccc5C)sc4nc3c2)cc1 -54.1%
CCCN(C(=O)c1nn(-c2ccc(OC)c(Cl)c2)c(=O)c2c1c1ccccc1n2C)c1ccccc1F -11.8%
COc1ccc(OC)c(NC(=O)Cn2cnc3sc(C)c(S(=O)(=O)N4CCN(c5ccccc5OC)CC4)c3c2=O)c1 10.4%
COc1ccc(C(=O)N2CCC(c3nc4ccccc4o3)CC2)cc1 -33%
CCOc1ccc(C(=O)NCCc2csc(-c3ccc(C(F)(F)F)cc3)n2)cc1OCC -18.8%
c1ccc(Cc2nnc(SCc3nc(-c4cccs4)no3)n2-c2ccccc2)cc1 -36.2%
